# Source: article PMC4336329 (PLoS ONE, 2015)
# About 2,200 (0.71%) of roughly 310,000 compounds showed an effect of 50% or more. The effect is printed as a negative number. Some of the results follow.
# Target: human ether-à-go-go-related gene (hERG) potassium channel (human, UniProt Q12809)
# Assay: primary screen, population patch clamp on CHO cells stably expressing hERG
# Sequence of human ether-à-go-go-related gene (hERG) potassium channel (Q12809 whole entry, looked up): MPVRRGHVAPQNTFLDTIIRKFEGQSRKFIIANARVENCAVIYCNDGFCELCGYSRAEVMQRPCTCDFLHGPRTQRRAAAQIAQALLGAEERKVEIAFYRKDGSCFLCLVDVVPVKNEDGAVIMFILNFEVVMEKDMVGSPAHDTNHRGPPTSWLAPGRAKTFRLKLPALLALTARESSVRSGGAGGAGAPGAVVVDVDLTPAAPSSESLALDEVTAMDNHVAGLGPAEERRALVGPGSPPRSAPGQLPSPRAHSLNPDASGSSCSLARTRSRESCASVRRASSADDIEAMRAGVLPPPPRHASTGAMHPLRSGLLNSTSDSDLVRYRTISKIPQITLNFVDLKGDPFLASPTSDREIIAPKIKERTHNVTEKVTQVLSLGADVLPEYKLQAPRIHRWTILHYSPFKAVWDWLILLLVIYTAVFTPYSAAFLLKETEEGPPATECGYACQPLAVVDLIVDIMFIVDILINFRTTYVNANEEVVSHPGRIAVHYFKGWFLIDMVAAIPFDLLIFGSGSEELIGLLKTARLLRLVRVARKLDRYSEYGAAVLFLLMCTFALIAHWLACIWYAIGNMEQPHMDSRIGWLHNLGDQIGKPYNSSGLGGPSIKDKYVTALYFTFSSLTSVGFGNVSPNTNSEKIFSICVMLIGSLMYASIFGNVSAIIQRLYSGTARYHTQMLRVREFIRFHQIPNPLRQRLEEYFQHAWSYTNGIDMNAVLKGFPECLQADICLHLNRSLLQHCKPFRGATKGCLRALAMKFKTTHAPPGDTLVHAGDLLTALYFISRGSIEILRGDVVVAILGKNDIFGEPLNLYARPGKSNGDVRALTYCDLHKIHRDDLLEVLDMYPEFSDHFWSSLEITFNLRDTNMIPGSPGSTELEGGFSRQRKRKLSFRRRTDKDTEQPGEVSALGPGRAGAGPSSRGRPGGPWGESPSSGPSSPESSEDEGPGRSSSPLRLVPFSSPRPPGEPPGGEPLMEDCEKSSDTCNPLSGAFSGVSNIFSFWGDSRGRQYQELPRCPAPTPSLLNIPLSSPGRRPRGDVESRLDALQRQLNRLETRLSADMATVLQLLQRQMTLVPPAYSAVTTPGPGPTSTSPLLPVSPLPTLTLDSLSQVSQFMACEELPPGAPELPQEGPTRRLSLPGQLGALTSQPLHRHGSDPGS
row,SMILES,"hERG current change (%, negative = inhibition) at 1uM"
1,CN(C)C(=O)c1cn(-c2ccccc2)c(=O)c2ccccc12,17.3%
2,CCC(NC(=O)c1ccccc1NC(=O)c1ccc(C)cc1)C(=O)O (stereo not shown),2.01%
3,CCN(CC)S(=O)(=O)c1cc(NC(=O)CCCOc2ccc(C(C)=O)cc2)ccc1C,6.54%
4,O=C(O)c1cccc(S(=O)(=O)N(Cc2ccccc2)c2ccccc2Cl)c1,12.5%
5,Cc1ccc(-c2nc(NCc3cccnc3)c3ccccc3n2)cc1,17.6%
6,NC(=O)c1ccccc1NC(=O)CC1(CC(=O)O)CCCC1,14.4%
7,COc1ccccc1CNC(=O)C(=O)NCC1OCCN1S(=O)(=O)c1ccc(Br)cc1 (stereo not shown),7.67%
8,O=C(/C=C/c1ccccc1)OCCN1C(=O)c2ccccc2C1=O,7.18%
9,Cc1ccc(OC(=O)CCS(=O)(=O)c2ccc(C)cc2)cc1,1.49%
10,COc1ccc(Cl)cc1NC(=O)Cn1nnc(C(=O)NCCc2ccc(OC)c(OC)c2)c1N,15.4%
11,CCOc1ccc(N(CC(=O)Nc2ccccc2OC)S(=O)(=O)c2ccccc2)cc1,10.1%
12,O=C(Cn1nc(-c2ccc(Cl)cc2)c2ccccc2c1=O)NCC1CCCO1 (stereo not shown),18%
13,CCS(=O)(=O)NCCNc1ccc([N+](=O)[O-])cc1,-7.35%
14,O=C(O)COc1ccc(Cl)cc1CO,7.15%
15,COc1cccc(/C=C2\SC(=O)N(CCC(=O)N3CCCCC3CCO)C2=O)c1 (stereo not shown),7.99%
16,CN(C)c1ccc(/C=N/NC(=O)CNC(=O)/C=C/c2ccccc2)cc1,-1.73%
17,C1=CC2=NC34CCCCC3CC3=C(CCCC3)N4C2=CC1=NC1CCCCC1 (stereo not shown),-1.4%
18,CCOC(=O)Nc1sc2c(c1C(N)=O)CCC(C)C2 (stereo not shown),9.64%
19,Cc1cc2c(c(=O)o1)C(Cc1ccccc1)C(C#N)=C(N)O2 (stereo not shown),11.1%
20,CCOC(=O)c1cc(-c2csc(COc3ccccc3)n2)on1,3.66%
21,Cn1c(SCC(=O)NCCc2ccccc2)nc2c([nH]c3ccccc32)c1=O,16.9%
22,COCCCNS(=O)(=O)c1cccc(S(=O)(=O)c2cccc(S(=O)(=O)NCCCOC)c2)c1,14.1%
23,Cc1cc(Cl)ccc1NC(=S)N1CCC(C(N)=O)(N2CCCCC2)CC1,3.64%
24,O=C(Nc1ccc(S(=O)(=O)Nc2ncccn2)cc1)c1cc([N+](=O)[O-])ccc1Cl,22.3%
25,COc1ccccc1CCNCc1ccc(OC)c(OC)c1OC.O=C(O)C(=O)O,12.2%
26,Cc1c(NC(=O)C(C)Oc2ccccc2F)c(=O)n(-c2ccccc2)n1C (stereo not shown),12.1%
27,COc1cccc(NC(=O)c2ccc(C(=O)c3ccccc3)o2)c1,5.74%
28,CCCCNC(=O)CCc1nc2cccnc2n1Cc1ccc(OC)cc1,-0.167%

row,SMILES,"hERG current change (%, negative = inhibition) at 1uM"
1,Cc1nn2c(NCCN(C)C)c3c(nc2c1-c1ccccc1)CCC3,6.68%
2,COc1cc(/C=N\NC(=O)c2nonc2N)c(OC)cc1Br,8.74%
3,Cc1ccc(OCC(=O)N/N=C/c2cccc3cccnc23)cc1,10.6%
4,COc1cccc(N2[C@@H](CC(C)=O)c3ccccc3S2(=O)=O)c1,11.5%
5,Cc1ccc(NS(=O)(=O)c2cc(C(=O)NCc3ccccn3)ccc2Cl)cc1C,-6.33%
6,CCn1c(=O)cc(OCC(=O)NC(C)c2ccc3c(c2)OCCO3)c2ccccc21 (stereo not shown),13.1%
7,CC1CN(Cc2nc3c(c(=O)n(C)c(=O)n3C)n2CCc2ccccc2)CC(C)O1 (stereo not shown),-8.54%
8,CC(C)(C)c1ccc(OCC(=O)NNC(=O)c2cccnc2)cc1,13.8%
9,C=CC(=O)NC(NC(=O)C=C)c1ccccc1F,8.02%
10,COc1ccc(C(=O)O)cc1S(=O)(=O)N(C)CCc1cccnc1,15.6%
11,Nc1nc(-c2sc3nc4c(cc3c2N)CCCC4)nc(N2CCOCC2)n1,15.7%
12,CCOC(=O)Cn1cc(C#N)c(=O)[nH]c1=O,5.27%
13,COC(=O)C1=C(c2ccc(F)cc2OCc2ccccc2)C[C@@H]2CC[C@H]1N2C,2.95%
14,CC(C)(C)C(=O)Nc1ccc(C(=O)OC2CCCCC2)cc1,0.866%
15,CN1CCN(NC(=O)CN2C(=O)S/C(=C\c3c(Cl)cccc3Cl)C2=O)CC1,6.28%
16,O=C(Nc1ccc(CN2CCOCC2)cc1)c1cccc(-c2cc3ccccc3oc2=O)c1,8.38%
17,NNC(=O)/C(=C\c1ccco1)NC(=O)c1ccco1,3.05%
18,CC(C)c1cn(C2OC(COC(=O)c3ccccc3)C(OC(=O)c3ccccc3)C2OC(=O)c2ccccc2)c(=O)[nH]c1=O (stereo not shown),13.2%
19,Clc1ccccc1-c1nc(-c2ccc(Br)o2)no1,15.4%
20,CCOc1ccc(C(=O)CSCC(=O)O)cc1,13.7%
21,CCN1CCN(C(=O)COc2ccc(S(=O)(=O)N(C)Cc3ccccc3)cc2)CC1,-24.7%
22,Cc1cc(N2CCN(C)CC2)nc2ccc(NC(=O)CCC(=O)N3CCN(c4ccc([N+](=O)[O-])cc4)CC3)cc12,13.8%
23,COC(=O)c1ccccc1S(=O)(=O)N1CCC(C(=O)OCC(=O)c2ccccc2OC)CC1,5.75%
24,COc1cc(CCC(=O)OCC(N)=O)cc(OC)c1OC,4.57%
25,O=C(COc1ccc([N+](=O)[O-])cc1)NNC(=O)Nc1ccccc1F,7.31%
26,C/C(=N\NC(=O)c1cc(C)oc1C)c1ccc(N2CCOCC2)cc1,12.3%
27,COc1ccc(O)c(C(=O)c2cc(C#N)c(=O)n(-c3c(C)n(C)n(-c4ccccc4)c3=O)c2)c1,11.8%
